Measured values reported in paper PMC4336329 (PLoS ONE, 2015).
Out of some 310,000 compounds screened, about 14,000 (4.5%) showed an effect of 50% or more. Effects have a minus sign here. Some of the results follow.

Each molecule was assayed against human ether-à-go-go-related gene (hERG) potassium channel (human, UniProt Q12809) (assay: primary screen, population patch clamp on CHO cells stably expressing hERG).
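Note: peak tail current of the secondary pulse compared with the same well before compound.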

Sequence of human ether-à-go-go-related gene (hERG) potassium channel (Q12809 whole entry, looked up): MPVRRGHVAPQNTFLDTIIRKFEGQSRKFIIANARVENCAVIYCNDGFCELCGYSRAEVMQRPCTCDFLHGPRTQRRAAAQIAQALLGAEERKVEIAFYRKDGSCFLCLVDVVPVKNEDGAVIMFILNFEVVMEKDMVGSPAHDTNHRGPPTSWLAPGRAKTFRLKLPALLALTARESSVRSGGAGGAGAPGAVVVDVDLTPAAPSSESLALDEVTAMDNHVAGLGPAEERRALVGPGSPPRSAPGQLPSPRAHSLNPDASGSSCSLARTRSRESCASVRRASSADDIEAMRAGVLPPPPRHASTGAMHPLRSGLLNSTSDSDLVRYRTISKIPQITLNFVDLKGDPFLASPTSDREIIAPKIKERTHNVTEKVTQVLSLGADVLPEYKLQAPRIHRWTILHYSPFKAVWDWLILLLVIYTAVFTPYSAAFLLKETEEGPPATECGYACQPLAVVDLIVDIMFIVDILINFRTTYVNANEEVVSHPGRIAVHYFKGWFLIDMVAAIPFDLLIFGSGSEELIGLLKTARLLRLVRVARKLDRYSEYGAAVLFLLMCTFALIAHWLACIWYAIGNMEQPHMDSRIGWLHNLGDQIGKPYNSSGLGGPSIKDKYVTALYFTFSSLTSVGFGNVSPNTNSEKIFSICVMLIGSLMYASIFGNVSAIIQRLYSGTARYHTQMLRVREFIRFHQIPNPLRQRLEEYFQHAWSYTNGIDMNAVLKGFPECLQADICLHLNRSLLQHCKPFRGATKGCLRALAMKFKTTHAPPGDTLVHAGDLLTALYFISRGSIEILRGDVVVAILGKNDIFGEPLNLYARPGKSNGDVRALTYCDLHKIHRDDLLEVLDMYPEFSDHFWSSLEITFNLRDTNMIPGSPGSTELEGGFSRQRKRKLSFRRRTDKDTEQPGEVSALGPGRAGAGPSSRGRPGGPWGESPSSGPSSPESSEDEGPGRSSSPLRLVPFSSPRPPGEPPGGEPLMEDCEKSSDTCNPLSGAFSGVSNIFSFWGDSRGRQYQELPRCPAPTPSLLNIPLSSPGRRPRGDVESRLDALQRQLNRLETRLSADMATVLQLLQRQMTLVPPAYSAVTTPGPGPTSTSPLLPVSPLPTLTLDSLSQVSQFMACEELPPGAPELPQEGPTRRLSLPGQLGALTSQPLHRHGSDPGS

SMILES | hERG current change (%, negative = inhibition) at 10uM [%]
O=C(O)CCSc1nnc(-c2ccncc2)n1-c1ccccc1 | 7.13
CC1C/C(=C/c2ccco2)C(=O)/C(=C/c2ccco2)C1 (stereo not shown) | 1.66
Cc1ccc(-c2ccc(CCC(=O)O)n2CC2CCCO2)cc1 (stereo not shown) | 8.23
CCOC(=O)C1CCCN(C(=O)COc2ccccc2F)C1 (stereo not shown) | 15.5
CC(=O)Nc1ccc(NC(=O)C(C)OC(=O)c2cccc(S(=O)(=O)N3CCCC3)c2)cc1 (stereo not shown) | 10.4
CN(CC(=O)Nc1cccc(F)c1)C(=O)c1sc2ccccc2c1Cl | -30.8
CCNS(=O)(=O)c1ccc(NS(C)(=O)=O)cc1 | 1.37
Cc1nc2cc(O)ccc2n1C | 13.1
O=C(CN1CCSCC1)N/N=C/c1ccc(F)c(F)c1 | -14.8
O=C1COc2ccc(C(=O)c3ccccc3C(=O)NCc3ccccc3)cc2N1 | -5.41
CN1C(=O)c2ccccc2C(C(=O)O)C1c1cccc(Cl)c1 (stereo not shown) | 0.8
CCCCn1c(-c2ccco2)n[nH]c1=S | 16.9
S=C(NCCCN1CCOCC1)Nc1ccc(Nc2ccccc2)cc1 | -15.8
COc1ccccc1N1CCN(/N=C/c2cccc(O)c2)CC1 | 5.78
CC1CCCC(NC(=O)CN(C)S(=O)(=O)c2cnc[nH]2)C1C (stereo not shown) | 25.5
Cc1ccc(C)c(NC(=O)Cn2ccn(-c3ccc4c(c3)OCO4)c(=O)c2=O)c1 | 9.83
COc1ccccc1CNC(=O)COC(=O)c1cnccn1 | 3.3
Cc1nc(CC(=O)N2CCN(c3cccc(C)c3C)CC2)cs1 | 1.31
COc1ccc(CC(=O)OCC(=O)NC(=O)NC23CC4CC(CC(C4)C2)C3)cc1 | -28.7
CC(C)CCC1(CN2CCCC2=O)C(=O)NC(=O)NC1=O | 9.34
c1ccc(-c2ccc(OCCCn3cncn3)cc2)cc1 | -38
CCOc1cc(S(=O)(=O)NC2CCCC2)ccc1Cl | 11

SMILES | hERG current change (%, negative = inhibition) at 10uM [%]
CCOc1ccccc1N1CCN(C(=O)Cc2ccc(S(=O)(=O)N3CCOCC3)s2)CC1 | -43.9
c1ccc(COc2nsnc2N2CCOCC2)cc1 | 6.37
COc1ccc(OCC(=O)OCCNC(=O)c2cccnc2)cc1.Cl | 10.1
CN(Cc1ccccc1)S(=O)(=O)c1ccc(OCC(=O)N2CCOCC2)cc1 | -26.6
CN1CCN(C(=O)c2ccc3c(c2)NC(=O)C(C)(C)O3)CC1 | -9.4
COc1ccccc1CNC(=O)C(=O)NCC(c1ccco1)N1CCOCC1 (stereo not shown) | 6.23
COc1ccc(CCNC2CCCCC2)cc1OC.Cl | 4.48
CCc1nc(SCC(=O)Nc2nnc(CC(C)C)s2)n[nH]1 | 21.8
Cc1cc(C)c(NC(=O)CNC(=O)c2ccc(-n3cncn3)c([N+](=O)[O-])c2)c(C)c1 | -12.8
CC(C)NC(=O)NC(=O)CN1C(=O)NC2(CCc3ccccc3C2)C1=O (stereo not shown) | 1.84
O=C(CCN1CCCC1=O)NC1CCCc2c1cnn2-c1ccccc1F (stereo not shown) | 6
CCN1C(=O)c2cccc3c(S(=O)(=O)Nc4ccc(O)c(C(=O)O)c4)ccc1c23 | 22.9
CC1CCCN(C(=O)Cn2cnc3c2c(=O)n(C)c(=O)n3C)C1 (stereo not shown) | 9.85
CC(C)CCSc1nc2c(c(=O)[nH]c(=O)n2C)n1CCc1ccccc1 | 1.17
Cc1ccc(C)c(Nc2nc3ccccc3n3cnnc23)c1 | -0.791
COc1cc(Cn2nnc3ccccc32)cc(Br)c1O | 3
O=C(c1cc([N+](=O)[O-])cc([N+](=O)[O-])c1)N(Cc1nnc(-c2ccccc2Cl)o1)C1CC1 | -36.8
CC(/C=C1\SC(=S)N(CC(=O)N2CCN(c3ccccc3)CC2)C1=O)=C\c1ccccc1 | 0.119
CCOC(=O)C1CCN(C(=O)c2cccc(C(=O)N3CCC(C(=O)OCC)CC3)c2)CC1 | 4.75
COc1cc(NS(=O)(=O)c2ccc(OC)c(OC)c2)cc(OC)c1 | -7.03
Cn1c(C(=O)N[C@@H](Cc2ccccc2)C(=O)NCCC(=O)O)cc2cc(Cl)ccc21 | 0.651
O=C(Nc1ccc(C(F)(F)F)cc1)c1ccc2nc[nH]c2c1 | 6.65

SMILES | hERG current change (%, negative = inhibition) at 10uM [%]
Cc1cccc(CC(=O)N2CCN(C(=O)c3ccco3)CC2)c1 | 2.39
Cc1[nH]c2ccccc2c1C(=O)CN1C(=O)C(=O)N(CCC2=CCCCC2)C1=O | -11
Oc1ccc(N2CCN(C(=S)NCCc3ccccc3)CC2)cc1 | -2.75
Cc1cnc(CN(C)Cc2c(C(=O)N3CCc4ccccc4C3)nc3ccc(Cl)cn23)[nH]1 | -62.6
CCN(CC(=O)Nc1ccc(NC(C)=O)cc1)C(=O)CSC(=S)N1CCCC1 | 12.2
COCCN(C(=O)CN1CCN(S(=O)(=O)c2ccc(F)cc2)CC1)c1c(N)n(Cc2ccccc2)c(=O)[nH]c1=O | 20.5
Cc1c(NC(=O)c2ccccc2NS(=O)(=O)c2ccc(Br)cc2)c(=O)n(-c2ccccc2)n1C | -1.11
COc1ccc(/C=N/NC(=O)c2c(C)nc3ccccn23)cc1[N+](=O)[O-] | 6.86
CC(/C=N/n1c(-c2cccnc2)n[nH]c1=S)=C\c1ccccc1 | 2.43
CCCC(=O)N(c1ccc(C(=O)O)cc1)c1nc(-c2ccccc2)c(C)s1 | 14.2
O=C(CNC(=O)N1CC(=O)Nc2ccccc21)NCCc1ccc(Cl)cc1 | 1.94
CCOC(=O)c1c(S(=O)(=O)NCC(=O)Nc2cccc(F)c2)c(C)n(C)c1C | 7.4
CO/N=C/c1ccc(N2CCOCC2)c([N+](=O)[O-])c1 | 0.313
CCn1cc(CNC(=O)CCc2ccc(OC)cc2)cn1 | 2.22
COc1cc(NC(=O)c2cccc(Cl)c2)c(OC)cc1NC(=O)CN1CCCCC1 | -1.89
CC(NC(=O)c1ccc2c(c1)OCCO2)c1ccc(S(N)(=O)=O)cc1 (stereo not shown) | 29.2
COc1ccc(N2CCN(C(=O)CSc3nnnn3-c3ccc4c(c3)OCCO4)CC2)cc1 | -17.2
Cc1cccc(NC(=O)NNC(=O)c2c(Cl)c(C)nn2C)c1 | 6.13
Cc1ccnc(NC(=O)c2cc(S(=O)(=O)NCc3ccccc3)ccc2C)c1 | -17.4
O=S(=O)(c1ccc2c(c1)OCCO2)N1CCN(Cc2ccc3c(c2)OCO3)CC1 | 3.98
O=c1cccc2n1CC1CNCC2C1 (stereo not shown) | 30
COc1ccc(NCC(O)COc2ccc(C(C)(C)C)cc2)cc1 (stereo not shown) | 3.63

SMILES | hERG current change (%, negative = inhibition) at 10uM [%]
O=C(Nc1ccon1)Nc1cccc(Cl)c1Cl | 7.46
CC(C)(C)c1ccc(C(=O)NNC(=O)c2ccc(Cl)cc2)cc1 | 9.85
COc1ccc(C(C(=O)NC2CCCC2)N(Cc2ccc(F)cc2)C(=O)c2ccn[nH]2)cc1OC (stereo not shown) | 3.61
COc1cc(C2C(C#N)=C(C)NC3=C2C(=O)c2ccccc23)cc(OC)c1OC (stereo not shown) | 17.1
Cc1ccc(C)c(/C(O)=C2/C(=O)C(=O)N(CCN3CCOCC3)C2c2ccc(C)o2)c1 (stereo not shown) | -2.72
COc1ccc(NC(=O)CNS(=O)(=O)c2cccc3nonc23)c(OC)c1 | -5.63
CN1c2ccsc2C(O)=C(C(=O)Nc2ccccc2)S1(=O)=O | 9.57
Cc1n[nH]c(C)c1CCN(C)C(=O)C1CCC(=O)N(CC2CCCCC2)C1 (stereo not shown) | 15.1
COCCNC(=O)c1cc2nc(-c3ccc(F)cc3)cc(C(F)(F)F)n2n1 | 7.95
CC(NC(=O)Cn1c(=O)oc2cc(S(=O)(=O)N3CCCC3)ccc21)c1ccccc1 (stereo not shown) | 3.17
C[C@H](NC(=O)C1CCN(S(=O)(=O)c2ccccc2)CC1)C(=O)NCc1ccccc1 | 6.27
CCCCCCCN1CCC(=O)N([C@H](CO)CC(C)C)CC1 | -63
Cn1c(=O)c2c(ncn2CC(O)CNc2cccc(Cl)c2)n(C)c1=O (stereo not shown) | -15.8
COc1ccc(CCN2CC(C(=O)OCC(=O)Nc3c(C)nn(-c4ccccc4)c3C)CC2=O)cc1OC (stereo not shown) | 0.109
COc1ccc(C(C)N2CC34C=CC(O3)C(C(=O)O)C4C2=O)cc1 (stereo not shown) | 8.42
O=C(Cc1ccccc1)NCC(=O)N/N=C/c1ccc(C(=O)O)cc1 | 12.3
CN(C(=O)c1cc(C(=O)N(C)c2ccccc2)cc([N+](=O)[O-])c1)c1ccccc1 | -14
CCOCCCNS(=O)(=O)Cc1ccccc1 | 0.149
Cc1ccccc1C(=O)Nc1ccnn1C1CCN(C2CCSCC2)CC1 | -49.5
CCOC(=O)c1ccc(NC(=O)c2nn(CC)cc2Br)cc1 | 5.3
COc1ccc(CCNC(=O)CSc2nc3ccsc3c(=O)n2CC2CCC(C(=O)O)CC2)cc1OC (stereo not shown) | 13.5
CC(C)CCN(C(=O)CCSc1ccc(F)cc1)c1c(N)n(Cc2ccccc2)c(=O)[nH]c1=O | 20
